Data as given in the supplement of paper PMC11060735.
Where a name gives a salt, the structure may show the parent alone. About 50 (3%) of roughly 1,800 compounds showed activity. Some of the results follow.

The compounds below were run on mouse p16Ink4a+/- lung fibroblasts (INKBRITE, bleomycin-injured) (assay: percentage of GFP+ (p16Ink4a+) fibroblasts among all cells in well; higher = less depletion of p16Ink4a+ cells, active = 20 or less). Conditions: 1 µM; 3 days.
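Note: fibroblasts sorted 14 days after bleomycin, GFP+ and GFP− mixed 1:1 in 384-well plates (GFP− as in-well control), imaged after Hoechst and NucView530 staining, reference wells lacked compound.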

| SMILES | percentage of GFP+ |
| --- | --- |
| COc1cccc2c1C(=O)c1c(O)c3c(c(O)c1C2=O)C[C@@](O)(C(=O)CO)C[C@@H]3O[C@H]1C[C@H](N)[C@@H](O)[C@H](C)O1 [Epirubicin, Epirubicin Hydrochloride] | inactive: 25.6% |
| N[C@@]1(C(=O)O)CS(=O)(=O)[C@H]2[C@H](C(=O)O)[C@H]21 | inactive: 47.9% |
| O=C(/C=C\n1cnc(-c2cc(C(F)(F)F)cc(C(F)(F)F)c2)n1)NNc1cnccn1 [Selinexor (KPT-330)] | active: 14.7% |
| O=C(NOC[C@H](O)CO)c1ccc(F)c(F)c1Nc1ccc(I)cc1F | inactive: 31.7% |
| CCC(=O)O[C@]1(C(=O)CCl)[C@@H](C)C[C@H]2[C@@H]3CCC4=CC(=O)C=C[C@]4(C)[C@@]3(F)[C@@H](O)C[C@@]21C [Clobetasol Propionate] | inactive: 32.2% |
| COCCc1ccc(OCC(O)CNC(C)C)cc1 (configuration not stated) [Metoprolol] | inactive: 42.5% |
| C=CC(=O)Nc1cccc(Sc2nc(Nc3ccc(N4CCN(C)CC4)cc3)ncc2Cl)c1 | inactive: 46.3% |
| CC[C@H]1OC(=O)[C@H](C)[C@@H](O[C@H]2C[C@@](C)(OC)[C@@H](O)[C@H](C)O2)[C@H](C)[C@@H](O[C@@H]2O[C@H](C)C[C@H](N(C)C)[C@H]2O)[C@](C)(OC)C[C@@H](C)C(=O)[C@H](C)[C@@H](O)[C@]1(C)O [Clarithromycin] | inactive: 48.3% |
| CCOC(=O)OC(C)OC1=C(C(=O)Nc2ccccn2)N(C)S(=O)(=O)c2ccccc21 (configuration not stated) [Ampiroxicam] | inactive: 42.1% |
| CN1CCC(=C2c3ccccc3C=Cc3ccccc32)CC1 [Cyproheptadine] | inactive: 51.8% |
| CC[C@@H](C)C[C@@H](C)CCCCCCCCC(=O)N[C@H]1C[C@@H](O)[C@@H](NCCN)NC(=O)[C@@H]2[C@@H](O)CCN2C(=O)[C@H]([C@H](O)CCN)NC(=O)[C@H]([C@H](O)[C@@H](O)c2ccc(O)cc2)NC(=O)[C@@H]2C[C@@H](O)CN2C(=O)[C@H]([C@@H](C)O)NC1=O [Caspofungin Acetate] | inactive: 45.6% |
| CC(=O)OCC(CCn1cnc2cnc(N)nc21)COC(C)=O [Famciclovir] | inactive: 34% |
| Clc1ccc(C(Cn2ccnc2)OCc2ccc(Sc3ccccc3)cc2)c(Cl)c1 (configuration not stated) [Fenticonazole Nitrate] | inactive: 34.6% |
| COc1ccccc1N1CCN(CCN(C(=O)C2CCCCC2)c2ccccn2)CC1 | inactive: 47.8% |
| Cc1onc(-c2ccccc2)c1-c1ccc(S(N)(=O)=O)cc1 [Valdecoxib] | inactive: 49.3% |
| C=CCc1cc(OC)c(O)c(C(=O)NCCO)c1 [Alibendol] | inactive: 42.5% |
| COC(=O)N[C@H](C(=O)N1CCC[C@H]1c1nc(-c2ccc(-c3ccc(-c4c[nH]c([C@@H]5CCCN5C(=O)[C@@H](NC(=O)OC)C(C)C)n4)cc3)cc2)c[nH]1)C(C)C [Daclatasvir] | inactive: 33.1% |
| Cc1cnc(NC(=O)Nc2cc(Br)c(C)cc2OC[C@@H]2CNCCO2)cn1 | inactive: 28.6% |
| COc1ccc(CNC(=O)Nc2ncc([N+](=O)[O-])s2)cc1 [N-(4-Methoxybenzyl)-N'-(5-Nitro-1,3-Thiazol-2-Yl)Urea] | inactive: 43.1% |
| O=C(O)c1cc(N=Nc2ccc(O)c(C(=O)O)c2)ccc1O [Olsalazine] | inactive: 43.3% |
| CC(C)C(=O)Oc1ccc(CO)cc1[C@H](CCN(C(C)C)C(C)C)c1ccccc1 [Fesoterodine] | inactive: 34.6% |
| O=c1c2ccccc2oc2ccccc12 [Xanthone] | inactive: 39% |
| O=c1c2ccccc2nc2n1CCc1c-2[nH]c2ccccc12 [Rutaecarpine] | inactive: 42.2% |

| SMILES | percentage of GFP+ |
| --- | --- |
| Cc1[nH]nc2ccc(-c3cncc(OC[C@@H](N)Cc4ccccc4)c3)cc12 | inactive: 53.6% |
| CC(C)(O)CC(=O)NCCn1ccc2ncnc(Nc3ccc(Oc4cccc(C(F)(F)F)c4)c(Cl)c3)c21 | inactive: 53.4% |
| C=C[C@]1(C)C[C@@H](OC(=O)CS[C@@H]2C[C@H]3CC[C@@H](C2)N3C)[C@]2(C)[C@H](C)CC[C@]3(CCC(=O)[C@H]32)[C@@H](C)[C@@H]1O [Retapamulin] | inactive: 50% |
| Cc1cn([C@H]2C[C@H](N=[N+]=[N-])[C@@H](CO)O2)c(=O)[nH]c1=O [Zidovudine] | inactive: 41.7% |
| C#Cc1cccc(Nc2ncnc3cc(OCCOC)c(OCCO)cc23)c1 | inactive: 54.2% |
| Clc1ccc2c(c1)CCc1cccnc1C2=C1CCNCC1 [Desloratadine] | inactive: 52.1% |
| Oc1cc(O)c(Cl)cn1 [Gimeracil] | inactive: 39% |
| COc1ccc(CCc2nc3cc(-c4c(C)noc4C)ccc3n2C[C@H](C)N2CCOCC2)cc1Cl | inactive: 41% |
| Cc1c[nH]c(-c2cnc(NCCNc3ccc(C#N)cn3)nc2-c2ccc(Cl)cc2Cl)n1 | inactive: 41.3% |
| C=C1CC[C@H](O)C/C1=C/C=C1\CCC[C@]2(C)[C@@H]([C@H](C)CCCC(C)C)CC[C@@H]12 [Cholecalciferol] | inactive: 45.1% |
| CCOC(=O)c1ncn2c1CN(C)C(=O)c1cc(F)ccc1-2 [Flumazenil] | inactive: 41.5% |
| CC1(C)S[C@@H]2[C@H](NC(=O)Cc3ccccc3)C(=O)N2[C@H]1C(=O)O [Benzylpenicillin] | inactive: 41% |
| CC(C)(C)c1cc(NC(=O)Nc2ccc(-c3cn4c(n3)sc3cc(OCCN5CCOCC5)ccc34)cc2)no1 [Quizartinib] | inactive: 20.8% |
| CCc1cnn2c(NCc3ccc[n+]([O-])c3)cc(N3CCCC[C@H]3CCO)nc12 [Dinaciclib] | active: 13% |
| Cc1cc(=O)oc2c(C=O)c(O)ccc12 | inactive: 48.1% |
| C=CC(C)(O)CC[C@@H]1[C@@]2(C)CCCC(C)(C)C2CC[C@@]1(C)O (some centres not stated) [Sclareol] | inactive: 43.2% |
| COc1ccc(C2(C#N)CCC(C(=O)O)CC2)cc1OC1CCCC1 (configuration not stated) [Cilomilast] | inactive: 36.1% |
| O=C1CCC(N2C(=O)c3ccccc3C2=O)C(=O)N1 (configuration not stated) [Thalidomide] | inactive: 41% |
| Nc1nccc(Oc2ccc(NC(=O)c3cncc(-c4ccc(F)cc4)c3O)cc2F)c1Cl | inactive: 49.5% |
| O=S(=O)(c1ccccc1)c1cnc2c(N3CCNCC3)cccc2c1 | inactive: 46.6% |
| CC(C)(C)C(=O)C(Oc1ccc(Cl)cc1)n1ccnc1 (configuration not stated) [Climbazole] | inactive: 53.5% |
| CC(C)(O)c1ccccc1CC[C@@H](SCC1(CC(=O)O)CC1)c1cccc(/C=C/c2ccc3ccc(Cl)cc3n2)c1 [Montelukast] | inactive: 45.2% |
| CCCc1cc(C(N)=S)ccn1 [Protionamide, Ektebin] | inactive: 43.9% |

| SMILES | percentage of GFP+ |
| --- | --- |
| COc1ccc(S(=O)(=O)Nc2cccnc2Nc2ccc(O)cc2)cc1 | inactive: 23% |
| C[C@H]1[C@H](OC(=O)CCC(=O)O)O[C@@H]2O[C@@]3(C)CC[C@H]4[C@H](C)CC[C@@H]1[C@@]24OO3 [Artesunate] | inactive: 29.5% |
| Cc1cccc(Nc2ccccc2C(=O)O)c1C [Mefenamic Acid] | inactive: 48.5% |
| C[C@@H]1CN(c2c(F)c(N)c3c(=O)c(C(=O)O)cn(C4CC4)c3c2F)C[C@H](C)N1 [Sparfloxacin] | inactive: 37.7% |
| COc1cc2c(c(OC)c1OC)-c1c(cc3c(c1OC)OCO3)C[C@@H](C)[C@@H](C)C2 [Schisandrin B] | inactive: 46.8% |
| COc1ccc(COc2cc3oc(=O)c4cc(C(C)O)ccc4c3cc2OC)cc1 (configuration not stated) [Palomid] | inactive: 45.4% |
| Cc1cc(O)nc(S)n1 [Methylthiouracil] | inactive: 48.2% |
| CC[C@H](C)C(=O)O[C@H]1C[C@H](O)C=C2C=C[C@H](C)[C@H](CC[C@@H](O)C[C@@H](O)CC(=O)O)[C@H]21 [Pravastatin] | inactive: 57.1% |
| CCN(CC)CCCCNc1ncc2cc(-c3cc(OC)cc(OC)c3)c(NC(=O)NC(C)(C)C)nc2n1 | inactive: 43.9% |
| C=C1C[C@@]2(O)O[C@@]3(C[C@H]2C(C)C)[C@@H](C)CC[C@@H]13 [Curcumol] | inactive: 40.5% |
| Nc1nc(Nc2ccc(S(N)(=O)=O)cc2)nn1C(=O)c1c(F)cccc1F | inactive: 53.6% |
| CC(C)CC(=O)Nc1[nH]nc2c1CN(C(=O)C1CCN(C)CC1)C2(C)C | inactive: 35.4% |
| CCOC(=O)[C@H](CCc1ccccc1)N[C@@H](C)C(=O)N1[C@H](C(=O)O)C[C@@H]2CCC[C@@H]21 [Ramipril] | inactive: 38.7% |
| OCCN1C[C@H](O)[C@@H](O)[C@H](O)[C@H]1CO [Miglitol] | inactive: 41.2% |
| CC(=O)OCC[N+](C)(C)C [Acetylcholine] | inactive: 41.3% |
| Cc1c(C(=O)NN2CCCCC2)nn(-c2ccc(Cl)cc2Cl)c1-c1ccc(I)cc1 | inactive: 42.4% |
| C[C@]12CCC(=O)C=C1CC[C@@H]1[C@@H]2[C@@H](O)C[C@@]2(C)[C@H]1CC[C@]2(O)C(=O)CO [Hydrocortisone] | inactive: 38.5% |
| O=C(CCCN1CCC(O)(c2ccc(Cl)cc2)CC1)c1ccc(F)cc1 [Haloperidol] | inactive: 33.8% |
| COc1c(C)c2c(c(O)c1C/C=C(\C)CCC(=O)OCCN1CCOCC1)C(=O)OC2 [Mycophenolate Mofetil] | inactive: 24% |
| COC(=O)c1ccc2c(/C(=N/c3ccc(N(C)C(=O)CN4CCN(C)CC4)cc3)c3ccccc3)c(O)[nH]c2c1 [Nintedanib] | inactive: 25.4% |
| COc1ccc(-c2oc3c(CC=C(C)C)c(OC4O[C@H](CO)[C@@H](O)[C@H](O)[C@H]4O)cc(O)c3c(=O)c2OC2O[C@@H](C)[C@H](O)[C@@H](O)[C@H]2O)cc1 (some centres not stated) [Icariin] | inactive: 50.1% |
